From the RNAGym collection of RNA variant scans (doi:10.7554/elife.90254)
The source gives no read counts; variants with many changes may rest on few reads.

B1: OR4K15 (parent)
chain: GUUAACGGUCAUAGGCCAUGGAAACUAGGAGCACCAUUUCGCUGCCAGUGAAGAAAUGAACAAAGAAAAUCUGGGCCAGGCAGGCAUCAAAAGAAAUAGUCUUGCGCUCAACCAGAAAGUCUGUAAUCAUUUUAAGGGUA

Variants of: B1
Experiment: self-cleavage, relative activity (ratio to wild type); higher = more cleavage; in vitro, sequencing; the parent is a self-cleaving ribozyme
Variant U37C A62U G115A has a self-cleavage of 0.14. A36G A55U A82G A118G showed a self-cleavage of 0.1. In the case of U37A A55G U72A, the self-cleavage is reported as 0.25. A33U U39C G41U A96G U103A U132C showed a self-cleavage of 0.57. In the case of A36G A54G A64U A90G, the self-cleavage is reported as 0.55. Variant A36C U49G U57G A68G A78G has a self-cleavage of 0.26. U37A U38C U57C A91G U103C showed a self-cleavage of 0.42. Variant A33U A54G A92G has a self-cleavage of 0.74. Variant U37C A67G A125U A140G has a self-cleavage of 2.04. With A36G A116U A140U the self-cleavage was 0.4. A36U U57C A62G A92G U132C gave a self-cleavage of 0.54. A33G G44A A78G A114C C121A gave a self-cleavage of 0. With A36G U49C A51U the self-cleavage was 1.6. A33U A92G U120A showed a self-cleavage of 2.52. With A33G U49A U108A A135G the self-cleavage was 0.02. A33U A64G A90G A117G showed a self-cleavage of 1.96. Variant U37C A52U A140U has a self-cleavage of 1.09. For A36G A63G U122C A126G U139C, the self-cleavage was 0.33. A33U A47U A69G showed a self-cleavage of 1.15. Variant A36U U43C A89G C112U A125G G137U has a self-cleavage of 0.01. Variant U37A U38C A64C has a self-cleavage of 0.88. A36G C109A U132C showed a self-cleavage of 0.21. Variant A33G C71A U127C has a self-cleavage of 0.03. With A33U A95G U108C A110G U130C the self-cleavage was 0. Variant A36U G74A A95G has a self-cleavage of 0.23. With A36G A90G U103C U139C the self-cleavage was 1.05. For A36G A110G U131C, the self-cleavage was 0.03. A33G U43C A59G U103C showed a self-cleavage of 0.34. With A36U A51G A52G A62U A66G U131C the self-cleavage was 0.14. A36U U38C A78U A116G showed a self-cleavage of 0.08. U37C A62G A90G U108C gave a self-cleavage of 0. Variant A33U U39A A59G has a self-cleavage of 1.47. Variant A36G A78U U102C has a self-cleavage of 0.85. For U37A A63U U130C, the self-cleavage was 0.31. Work on C34U G115A A126G yielded a self-cleavage of 0.03. For C34U A59G A96G, the self-cleavage was 0.1. Variant C35U A68G U70A has a self-cleavage of 0.42. In the case of C34U A55G A60G A67U A129G, the self-cleavage is reported as 1.53. For A33G U43A A52G A59U A60G U120C C121A, the self-cleavage was 2.99. In the case of A33G G123U A140G, the self-cleavage is reported as 0.75. A36U G73A A96G A118U U120A U127C showed a self-cleavage of 0.04. U37A A52G A118G gave a self-cleavage of 1.68. For U37C A59U A60G A96G A110G U133C, the self-cleavage was 0.11. With A36U A86G G106A U122A the self-cleavage was 0.01. With U37C A78U U122C the self-cleavage was 0.13. Work on A36U A60G A135G yielded a self-cleavage of 1.78. In the case of U37C A78G U132A, the self-cleavage is reported as 0.16. Variant A36G A89G A126G has a self-cleavage of 0.51. A36G A59G U72C U108C showed a self-cleavage of 0.02. In the case of U37C A63G A67G A68G A126G U132C, the self-cleavage is reported as 0.42. A36U U37C A117U showed a self-cleavage of 0.76. Work on A36U A47G A52G A92C A94G U120C U122C yielded a self-cleavage of 0.42. Variant U37C A54G A55G A68G A69G A90G A118G has a self-cleavage of 0.26. A36C U97C A114G showed a self-cleavage of 0.32. A36U A55G A59G gave a self-cleavage of 1.39. With U37A U39C U49A the self-cleavage was 1.38. With A36G U102C A111G the self-cleavage was 0.03. A33U A36G U87A A90G A96G gave a self-cleavage of 1.76. In the case of A36G U43C U49C U100C, the self-cleavage is reported as 1.71. With A36G C71A U120A the self-cleavage was 0.22. With A36U A92G A110G A129G the self-cleavage was 0.07. Work on A33U C45G A60C G74A yielded a self-cleavage of 0.32. For U37C A55G U100C, the self-cleavage was 2.08. With U37C A59U A62G the self-cleavage was 1.6. Variant U37C A60G A95U A116G has a self-cleavage of 0.31. A33G U108C C113A showed a self-cleavage of 0. With U37C A89G A91U U100C the self-cleavage was 2.67. A33U C76A G83A showed a self-cleavage of 0.11. In the case of C34U U122G U131C, the self-cleavage is reported as 2.76. Variant A33U G74A A140G has a self-cleavage of 0.28. A36U U43C A51G U131C showed a self-cleavage of 1.04. In the case of U37C A51G A94G A110G U130C, the self-cleavage is reported as 0.03. A33G U39C A52G A68G A98U U124C gave a self-cleavage of 1.74. Variant A36U A94G U100C U122A has a self-cleavage of 1.72. C35U U37C A68G gave a self-cleavage of 1.58. In the case of A36G A54G A67G, the self-cleavage is reported as 1.13. In the case of A36G A96G U102C A118G, the self-cleavage is reported as 1.51. Variant A36G A66G U130C has a self-cleavage of 1.32. Work on U37C A59G U120G yielded a self-cleavage of 2.45. Work on U37C A64G G106C A118G yielded a self-cleavage of 0. Variant U37C A82U A86G A118G has a self-cleavage of 0.09. For A36C G44A U87A A91G A140G, the self-cleavage was 2.02. For U37A A86G A126G, the self-cleavage was 1.05. Work on U37C A69G U100C yielded a self-cleavage of 0.94. Variant A36G U38C U102C U131A has a self-cleavage of 2.38. A33U A59G U124C gave a self-cleavage of 0.54. C34U A51G A78C A96U A129G showed a self-cleavage of 0.13. Variant U37C A55G A62G A82G A116U has a self-cleavage of 0.07. With C35A U43C A47G the self-cleavage was 0.57. Work on A33U A82G U139C yielded a self-cleavage of 0.36. For A36G U108C A134G, the self-cleavage was 0.01. Variant A36G A62G C105U has a self-cleavage of 0.13. In the case of C34G U49A A55G G74A U100C A135G, the self-cleavage is reported as 0.13. In the case of A33U A114G A117G, the self-cleavage is reported as 0.8. Work on A33U A64G U97C yielded a self-cleavage of 1.18. In the case of U37C A59U G104A, the self-cleavage is reported as 0.06. With A36G A59G A68G U70C G115A the self-cleavage was 0.03. For A33G U108C U127C, the self-cleavage was 0.01. A33U G50A A60G U87C C88U U133A gave a self-cleavage of 1.11. Variant U37C A59U A140G has a self-cleavage of 0.89. For U37C A56G A89U U108C A116G, the self-cleavage was 0. Variant A36G U38C A86G U87C has a self-cleavage of 1.09. With A33U U39C U87C U103C the self-cleavage was 1.02. In the case of A36U A92G U100C U102C, the self-cleavage is reported as 2.14. In the case of U37C A54G A68G U103G U133A, the self-cleavage is reported as 0.09. Work on A33G U72C A96G U100C yielded a self-cleavage of 0.26. For U37C A68G A92U A96G U102C U108A U130C, the self-cleavage was 0.01. Variant A36G A92G U120C has a self-cleavage of 0.75. With A33G U37C A94G A129G the self-cleavage was 0.6. A36G A51G A82G U108C showed a self-cleavage of 0.05. Variant A33G U37A U108C U122A has a self-cleavage of 0. A33U U37A A116G showed a self-cleavage of 0.98. C34U A63G A86G showed a self-cleavage of 0.89. In the case of A36U A51G A114G A118G, the self-cleavage is reported as 0.33. In the case of U37C A47U A110G, the self-cleavage is reported as 0.06. Variant A33G U37C U57G U120G has a self-cleavage of 2.02. Variant U37C A56G U72C U108C G119A A129G has a self-cleavage of 0. In the case of A33U A68G A125G, the self-cleavage is reported as 0.43. Variant U37C A59G A60U has a self-cleavage of 1.35. A33G U43G A116G gave a self-cleavage of 0.43. Work on A36C A89U U133C A135G yielded a self-cleavage of 2.09. For A36G A94G A116G, the self-cleavage was 1.05. C35U A117U A135G gave a self-cleavage of 0.51. A36G A62U A90G A114G showed a self-cleavage of 0.34. In the case of U37C A52G U108A, the self-cleavage is reported as 0.04. U37C A52G U108C showed a self-cleavage of 0.03. A36G A55G A95G U103C showed a self-cleavage of 1.43. In the case of C35U A63G A67G A92G A96C A140U, the self-cleavage is reported as 1.92. With U37C A51G U57C A64G U103C C113A G123U the self-cleavage was 0.03. Work on A36U U43A A135G yielded a self-cleavage of 1.93. Variant A36G A86G U103C has a self-cleavage of 0.9. For A36G A116G U120C, the self-cleavage was 0.25. For U37C A60G G79A, the self-cleavage was 0.13. Work on A36U A52G U57G yielded a self-cleavage of 1.35. Variant A36U A64G A68G has a self-cleavage of 1.87. With A36G A64G U127C the self-cleavage was 1.13. For A36U U87C A116G, the self-cleavage was 0.25. U37C A47G A63G A126G showed a self-cleavage of 1.39. For A33G G48A A91G A114G U122C U132C, the self-cleavage was 0.01. With C35U A54G A60G the self-cleavage was 0.4. A36G A92G A126G showed a self-cleavage of 1.03. U37C A63G A82U A94G A95G gave a self-cleavage of 0.4. In the case of A36U U57A A96G A111U, the self-cleavage is reported as 0.06. A36G A64U G84U A91G gave a self-cleavage of 0.14. A36G A47G A67G G75C showed a self-cleavage of 0.14. For A36U A86U U103A U120A, the self-cleavage was 1.84. Variant A36U A59G A66U A68G A95G U122C has a self-cleavage of 1.02. With A36U A52C U72A A110G A118U the self-cleavage was 0.01. In the case of A36U U103C A111G, the self-cleavage is reported as 0. U37C A51G A59G gave a self-cleavage of 0.75. In the case of A36U U72A A90G A117G, the self-cleavage is reported as 0. For A33U A66G A92G A94G A117G U120C, the self-cleavage was 0.68. For A36G A66G A82C U122C, the self-cleavage was 0.13. Variant U37C A54U C107U has a self-cleavage of 0.01. In the case of A33U A64G A92G C105U U120C, the self-cleavage is reported as 0.15. Work on A36U G79U A114G U124C yielded a self-cleavage of 0.01. With U37C A64G U124C the self-cleavage was 0.49. A33G U57C A96G showed a self-cleavage of 0.36. Work on A36U U38C G41U A96G A110G C128U yielded a self-cleavage of 0.28. For U37C A60G A92U, the self-cleavage was 1.78. Work on A36G A90U U127A U131A A140C yielded a self-cleavage of 1.8. Work on C35U A52U A68U yielded a self-cleavage of 1.62. A36C U49C C105U U130C gave a self-cleavage of 0.04. A33U A54G A67G A92G A110G gave a self-cleavage of 0.17. A36U A62G A96G U103G gave a self-cleavage of 0.02. In the case of A33U G104U U108C, the self-cleavage is reported as 0. A36U A63G A82G showed a self-cleavage of 0.72.
